From PMC12820563, “FoxP3 forms a head-to-head dimer in vivo and stabilizes its multimerization on adjacent microsatellites” come the findings set out here.

Some of the results follow.

The assay addresses T1, MBP-FoxP1dN (Mus musculus, UniProt P58462 326-579).
T1 sequence: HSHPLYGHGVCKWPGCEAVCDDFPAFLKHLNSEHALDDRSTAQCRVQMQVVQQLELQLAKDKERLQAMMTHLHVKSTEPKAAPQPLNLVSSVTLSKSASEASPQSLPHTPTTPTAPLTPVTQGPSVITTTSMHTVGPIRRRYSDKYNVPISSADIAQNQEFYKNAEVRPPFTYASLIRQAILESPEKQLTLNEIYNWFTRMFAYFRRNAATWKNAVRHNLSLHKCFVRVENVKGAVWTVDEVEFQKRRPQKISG
The assay is described as follows: PD-seq (MBP pull-down with sequencing); 20 mM Tris-HCl pH 7.5, 100 mM NaCl, 1.5 mM MgCl2, 0.4 uM protein, 0.1 uM dsDNA library, 30 min, room temperature, amylose pull-down; high values mean tight binding. The settings on record: protein: recombinant; tags: His6-MBP; chain copies: 2; dsDNA, one strand shown. A digest of the protocol: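 A fragment of mouse FoxP3 or FoxP1 without its N-terminus, carrying a His6-MBP tag and produced in E. coli, was combined at 0.4 µM with a 0.1 µM degenerate double-stranded DNA library filled in with Klenow. The mixture sat for 30 min at room temperature in Tris pH 7.5 buffer containing NaCl and MgCl2. Protein–DNA complexes were captured on amylose resin, washed three times, and the DNA was freed with proteinase K, barcoded by PCR and sequenced on Illumina. Binding is expressed as reads-per-million enrichment of pull-down over input, with replicates pooled.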
Turning to “GATGATTGTTCTCCCAGCTGATGAATTGGCGAATTCGAGTAAACAAATTTTCCTAATCTTTCTGTTCAAGCGCCATCTAC”, the binding signal is 0.896 RPM ratio (pull-down/input).
For the sequence “GATGATTGTTCTCCCAGCTGATGAATTGATTTTTTCGAGTAAACAAATTTTCCTAATCTTTCTGTTCAAGCGCCATCTAC”, the binding signal is 1.25 RPM ratio (pull-down/input).
With “GATGATTGTTCTCCCAGCTGATGAATTGAATACGTCGAGTAAACAAATTTTCCTAATCTTTCTGTTCAAGCGCCATCTAC” the figure was 0.971 RPM ratio (pull-down/input).
“GATGATTGTTCTCCCAGCTGATGAATTGCTTGCCTCGAGTAAACAAATTTTCCTAATCTTTCTGTTCAAGCGCCATCTAC”: the binding signal is 1.04 RPM ratio (pull-down/input).
Consider “GATGATTGTTCTCCCAGCTGATGAATTTATAGTTTCGAGTAAACAAATTTTCCTAATCTTTCTGTTCAAGCGCCATCTAC”, for which the binding signal is 1.11 RPM ratio (pull-down/input).
For “GATGATTGTTCTCCCAGCTGATGAATTGCTACTTTCGAGTAAACAAATTTTCCTAATCTTTCTGTTCAAGCGCCATCTAC”, the binding signal was 1.23 RPM ratio (pull-down/input).
With “GATGATTGTTCTCCCAGCTGATGAATTTTTTCTCTCGAGTAAACAAATTTTCCTAATCTTTCTGTTCAAGCGCCATCTAC”, the binding signal is 0.83 RPM ratio (pull-down/input).
Turning to “GATGATTGTTCTCCCAGCTGATGAATTGAATCGGTCGAGTAAACAAATTTTCCTAATCTTTCTGTTCAAGCGCCATCTAC”, the binding signal was 0.838 RPM ratio (pull-down/input).
Take “GATGATTGTTCTCCCAGCTGATGAATTTTGCCGTTCGAGTAAACAAATTTTCCTAATCTTTCTGTTCAAGCGCCATCTAC”: the binding signal was 0.922 RPM ratio (pull-down/input).
Turning to “GATGATTGTTCTCCCAGCTGATGAATTTTTCGAGTCGAGTAAACAAATTTTCCTAATCTTTCTGTTCAAGCGCCATCTAC”, the binding signal was 0.859 RPM ratio (pull-down/input).
As for “GATGATTGTTCTCCCAGCTGATGAATTAGAAGTTTCGAGTAAACAAATTTTCCTAATCTTTCTGTTCAAGCGCCATCTAC”, the binding signal is 0.897 RPM ratio (pull-down/input).
For the sequence “GATGATTGTTCTCCCAGCTGATGAATTGGTATTGTCGAGTAAACAAATTTTCCTAATCTTTCTGTTCAAGCGCCATCTAC”, the binding signal is 2.44 RPM ratio (pull-down/input).
As for “GATGATTGTTCTCCCAGCTGATGAATTCGGAAAATCGAGTAAACAAATTTTCCTAATCTTTCTGTTCAAGCGCCATCTAC”, the binding signal was 1.05 RPM ratio (pull-down/input).
For the sequence “GATGATTGTTCTCCCAGCTGATGAATTGCGGTTTTCGAGTAAACAAATTTTCCTAATCTTTCTGTTCAAGCGCCATCTAC”, the binding signal is 1.24 RPM ratio (pull-down/input).
As for “GATGATTGTTCTCCCAGCTGATGAATTCTTCACATCGAGTAAACAAATTTTCCTAATCTTTCTGTTCAAGCGCCATCTAC”, the binding signal was 1.08 RPM ratio (pull-down/input).
Consider “GATGATTGTTCTCCCAGCTGATGAATTGAACTTCTCGAGTAAACAAATTTTCCTAATCTTTCTGTTCAAGCGCCATCTAC”, for which the binding signal was 0.744 RPM ratio (pull-down/input).
Take “GATGATTGTTCTCCCAGCTGATGAATTCAGTGCATCGAGTAAACAAATTTTCCTAATCTTTCTGTTCAAGCGCCATCTAC”: the binding signal was 1.19 RPM ratio (pull-down/input).
Take “GATGATTGTTCTCCCAGCTGATGAATTACTCGGCTCGAGTAAACAAATTTTCCTAATCTTTCTGTTCAAGCGCCATCTAC”: the binding signal was 0.984 RPM ratio (pull-down/input).
Turning to “GATGATTGTTCTCCCAGCTGATGAATTGCTCTGTTCGAGTAAACAAATTTTCCTAATCTTTCTGTTCAAGCGCCATCTAC”, the binding signal is 0.993 RPM ratio (pull-down/input).
“GATGATTGTTCTCCCAGCTGATGAATTTCTGTTATCGAGTAAACAAATTTTCCTAATCTTTCTGTTCAAGCGCCATCTAC”: the binding signal was 1.69 RPM ratio (pull-down/input).
With “GATGATTGTTCTCCCAGCTGATGAATTCGCCTGCTCGAGTAAACAAATTTTCCTAATCTTTCTGTTCAAGCGCCATCTAC” the figure was 0.771 RPM ratio (pull-down/input).
Regarding “GATGATTGTTCTCCCAGCTGATGAATTCAAGAGTTCGAGTAAACAAATTTTCCTAATCTTTCTGTTCAAGCGCCATCTAC”, the binding signal is 0.821 RPM ratio (pull-down/input).
With “GATGATTGTTCTCCCAGCTGATGAATTCACTCTATCGAGTAAACAAATTTTCCTAATCTTTCTGTTCAAGCGCCATCTAC” the figure was 0.908 RPM ratio (pull-down/input).
As for “GATGATTGTTCTCCCAGCTGATGAATTTAAAGTCTCGAGTAAACAAATTTTCCTAATCTTTCTGTTCAAGCGCCATCTAC”, the binding signal is 0.851 RPM ratio (pull-down/input).
Turning to “GATGATTGTTCTCCCAGCTGATGAATTATTGCTATCGAGTAAACAAATTTTCCTAATCTTTCTGTTCAAGCGCCATCTAC”, the binding signal was 1.3 RPM ratio (pull-down/input).
For the sequence “GATGATTGTTCTCCCAGCTGATGAATTGCGGGGCTCGAGTAAACAAATTTTCCTAATCTTTCTGTTCAAGCGCCATCTAC”, the binding signal was 0.905 RPM ratio (pull-down/input).
Turning to “GATGATTGTTCTCCCAGCTGATGAATTACTCAGTTCGAGTAAACAAATTTTCCTAATCTTTCTGTTCAAGCGCCATCTAC”, the binding signal was 1.14 RPM ratio (pull-down/input).
As for “GATGATTGTTCTCCCAGCTGATGAATTAGATAACTCGAGTAAACAAATTTTCCTAATCTTTCTGTTCAAGCGCCATCTAC”, the binding signal was 1.03 RPM ratio (pull-down/input).
Take “GATGATTGTTCTCCCAGCTGATGAATTCGTTGTCTCGAGTAAACAAATTTTCCTAATCTTTCTGTTCAAGCGCCATCTAC”: the binding signal was 1.01 RPM ratio (pull-down/input).
The value for “GATGATTGTTCTCCCAGCTGATGAATTCGGCAGGTCGAGTAAACAAATTTTCCTAATCTTTCTGTTCAAGCGCCATCTAC” was 0.81 RPM ratio (pull-down/input); that for “GATGATTGTTCTCCCAGCTGATGAATTCCGTCTCTCGAGTAAACAAATTTTCCTAATCTTTCTGTTCAAGCGCCATCTAC” was 0.818 RPM ratio (pull-down/input).
For the sequence “GATGATTGTTCTCCCAGCTGATGAATTGAAAAGTTCGAGTAAACAAATTTTCCTAATCTTTCTGTTCAAGCGCCATCTAC”, the binding signal is 0.785 RPM ratio (pull-down/input).
On to “GATGATTGTTCTCCCAGCTGATGAATTTAAGATGTCGAGTAAACAAATTTTCCTAATCTTTCTGTTCAAGCGCCATCTAC”, for which the binding signal is 0.905 RPM ratio (pull-down/input).
“GATGATTGTTCTCCCAGCTGATGAATTAGCCAATTCGAGTAAACAAATTTTCCTAATCTTTCTGTTCAAGCGCCATCTAC”: the binding signal is 1.02 RPM ratio (pull-down/input).
As for “GATGATTGTTCTCCCAGCTGATGAATTAACATACTCGAGTAAACAAATTTTCCTAATCTTTCTGTTCAAGCGCCATCTAC”, the binding signal is 1.09 RPM ratio (pull-down/input).
Take “GATGATTGTTCTCCCAGCTGATGAATTAATGAGATCGAGTAAACAAATTTTCCTAATCTTTCTGTTCAAGCGCCATCTAC”: the binding signal is 0.846 RPM ratio (pull-down/input).
Regarding “GATGATTGTTCTCCCAGCTGATGAATTGAAGTCATCGAGTAAACAAATTTTCCTAATCTTTCTGTTCAAGCGCCATCTAC”, the binding signal is 0.885 RPM ratio (pull-down/input).
With “GATGATTGTTCTCCCAGCTGATGAATTGACAAACTCGAGTAAACAAATTTTCCTAATCTTTCTGTTCAAGCGCCATCTAC” the figure was 1.55 RPM ratio (pull-down/input).
The value for “GATGATTGTTCTCCCAGCTGATGAATTTCTCTGGTCGAGTAAACAAATTTTCCTAATCTTTCTGTTCAAGCGCCATCTAC” was 0.845 RPM ratio (pull-down/input).
With “GATGATTGTTCTCCCAGCTGATGAATTTAGTCAGTCGAGTAAACAAATTTTCCTAATCTTTCTGTTCAAGCGCCATCTAC” the figure was 0.951 RPM ratio (pull-down/input).
